Sequences and labels used below:
B1: PhoQ; a variant is named by its letters at X, in order, P23837 (parent)
chain: MKKLLRLFFPLSLRVRFLLATAAVVLVLSLAYGMVALIGYSVSFDKTTFRLLRGESNLFYTLAKWENNKLHVELPENIDKQSPTMTLIYDENGQLLWAQRDVPWLMKMIQPDWLKSNGFHEIEADVNDTSLLLSGDHSIQQQLQEVREDDDDAEMTHSVAVNVYPATSRMPKLTIVVVDTIPVELKSSYMVWSWFIYVLSANLLLVIPLLWVAAWWSLRPIEALAKEVRELEEHNRELLNPATTRELTSLVRNLNRLLKSERERYDKYRTTLTDLTHSLKTPLXXLQXXLRSLRSEKMSVSDAEPVMLEQISRISQQIGYYLHRASMRGGTLLSRELHPVAPLLDNLTSALNKVYQRKGVNISLDISPEISFVGEQNDFVEVMGNVLDNACKYCLEFVEISARQTDEHLYIVVEDDGPGIPLSKREVIFDRGQRVDTLRPGQGVGLAVAREITEQYEGKIVAGESMLGGARMEVIFGRQHSAPKDE

The list shows a part of the results.

The variants in this assay derive from B1. The assay can be described thus: enrichment ratio after two sorts for PhoP signalling (ratio (wild type AVST 3.29)); higher = more functional. The following applies: with PhoP (E. coli).
For DSGL, the enrichment ratio was at most 0.25.

Consider LEVA, for which the enrichment ratio is at most 0.25.

For the variant QGDT, the enrichment ratio is at most 0.25.

Consider YNMQ, for which the enrichment ratio is at most 0.25.

As to PETV, the enrichment ratio is at most 0.25.

On to RYKQ, for which the enrichment ratio is at most 0.25.

KPIT: the enrichment ratio is at most 0.25.

On to SNCP, for which the enrichment ratio is at most 0.25.

As to IWFL, the enrichment ratio was at most 0.25.

For PCGF, the enrichment ratio is at most 0.25.

Consider SFWR, for which the enrichment ratio was at most 0.25.

For RYGS, the enrichment ratio is at most 0.25.

Take NKFI: the enrichment ratio was at most 0.25.

With QYKA, the enrichment ratio was at most 0.25.

Take DSNM: the enrichment ratio was at most 0.25.

Take YDHR: the enrichment ratio was at most 0.25.

As for DQDQ, the enrichment ratio is at most 0.25.

On to GEDS, for which the enrichment ratio was at most 0.25.

With KHEY, the enrichment ratio is at most 0.25.

Regarding IEGD, the enrichment ratio is at most 0.25.

Regarding HNPA, the enrichment ratio was at most 0.25.

For the variant FADI, the enrichment ratio is at most 0.25.

As to HERP, the enrichment ratio is at most 0.25.

Take SYGE: the enrichment ratio was at most 0.25.

In the case of IMFG, the enrichment ratio was at most 0.25.

SWMW: the enrichment ratio is at most 0.25.

In the case of GDSG, the enrichment ratio is at most 0.25.

With DVPV, the enrichment ratio is at most 0.25.

For the variant DFCT, the enrichment ratio is at most 0.25.

EAVF: the enrichment ratio was at most 0.25.

Consider PWVD, for which the enrichment ratio is at most 0.25.

Take YPFI: the enrichment ratio is at most 0.25.

As to IIVT, the enrichment ratio is at most 0.25.

For TSNE, the enrichment ratio came to 8.75.

Regarding SWMG, the enrichment ratio is at most 0.25.

Consider AHMP, for which the enrichment ratio was at most 0.25.

As for KMKI, the enrichment ratio is at most 0.25.

As to YFWR, the enrichment ratio is at most 0.25.

As for SFTE, the enrichment ratio was at most 0.25.

On to NDYV, for which the enrichment ratio was at most 0.25.

For the variant TMFI, the enrichment ratio is at most 0.25.

With PLPK, the enrichment ratio is at most 0.25.

In the case of YFPD, the enrichment ratio is at most 0.25.

Consider MICQ, for which the enrichment ratio is at most 0.25.

As to TMEK, the enrichment ratio was at most 0.25.

For KSTH, the enrichment ratio is at most 0.25.

With PDPA, the enrichment ratio was at most 0.25.

TMIH: the enrichment ratio was at most 0.25.

Turning to AVMY, the enrichment ratio is 1.69.

For FLKT, the enrichment ratio is at most 0.25.

Consider PIEF, for which the enrichment ratio is at most 0.25.

Turning to NNNY, the enrichment ratio is at most 0.25.

For the variant QYFV, the enrichment ratio was at most 0.25.

With KEGI, the enrichment ratio was at most 0.25.

Turning to ELCP, the enrichment ratio is at most 0.25.

Take ARTD: the enrichment ratio was at most 0.25.

As for PKLC, the enrichment ratio was at most 0.25.

With RPYT, the enrichment ratio was at most 0.25.

On to VKDY, for which the enrichment ratio is at most 0.25.

As for PRCL, the enrichment ratio was at most 0.25.

For QQCL, the enrichment ratio was at most 0.25.

Take VLCT: the enrichment ratio is at most 0.25.

With PVMP, the enrichment ratio is at most 0.25.

With TMCD, the enrichment ratio is 3.1.

As for WVQG, the enrichment ratio is at most 0.25.

For the variant IEGK, the enrichment ratio was at most 0.25.

On to SMVR, for which the enrichment ratio amounted to 2.05.

With YAEE, the enrichment ratio is at most 0.25.

For TRQF, the enrichment ratio is at most 0.25.

As for VTWF, the enrichment ratio is at most 0.25.

Regarding MQSD, the enrichment ratio was at most 0.25.

As for GHFK, the enrichment ratio is at most 0.25.

On to YYVW, for which the enrichment ratio is at most 0.25.

Regarding WDEC, the enrichment ratio was at most 0.25.

With YVLV, the enrichment ratio was at most 0.25.

With DMNP, the enrichment ratio was at most 0.25.

Regarding NRSF, the enrichment ratio is at most 0.25.

As for THPH, the enrichment ratio is at most 0.25.

On to GYNI, for which the enrichment ratio was at most 0.25.

For TQTQ, the enrichment ratio turned out to be 4.86.

Take EFTW: the enrichment ratio was at most 0.25.

For TVEM, the enrichment ratio was at most 0.25.

With DWSS, the enrichment ratio is at most 0.25.

As to MKII, the enrichment ratio was at most 0.25.

Regarding KLTN, the enrichment ratio was at most 0.25.

Take RWPV: the enrichment ratio is at most 0.25.

For the variant HCPF, the enrichment ratio was at most 0.25.

As to LKKM, the enrichment ratio was at most 0.25.

As to YNNQ, the enrichment ratio is at most 0.25.

As to LMTG, the enrichment ratio was at most 0.25.

As to IFVQ, the enrichment ratio is at most 0.25.

For the variant QSVD, the enrichment ratio was at most 0.25.

FTSW: the enrichment ratio is at most 0.25.

Turning to ASLS, the enrichment ratio is 10.2.

With SKKS, the enrichment ratio was at most 0.25.

SARM: the enrichment ratio was at most 0.25.

Turning to DIPQ, the enrichment ratio is at most 0.25.

In the case of FFVT, the enrichment ratio was at most 0.25.

For GSAK, the enrichment ratio was 1.55.

Turning to PMSP, the enrichment ratio is at most 0.25.

Turning to GHPI, the enrichment ratio is at most 0.25.

Regarding LTIG, the enrichment ratio is at most 0.25.

As for QVYY, the enrichment ratio is at most 0.25.

Regarding NNWL, the enrichment ratio was at most 0.25.

Turning to TESD, the enrichment ratio turned out to be 1.4.

For the variant VERV, the enrichment ratio is at most 0.25.

As for DLVI, the enrichment ratio was at most 0.25.

Regarding HMPC, the enrichment ratio is at most 0.25.

Take MPHH: the enrichment ratio is at most 0.25.

As for HQSN, the enrichment ratio is at most 0.25.

On to THSM, for which the enrichment ratio is 7.82.

For the variant EEAV, the enrichment ratio was at most 0.25.

FRIG: the enrichment ratio is at most 0.25.

Turning to LGLY, the enrichment ratio was at most 0.25.

In the case of AQVR, the enrichment ratio is at most 0.25.

PQSM: the enrichment ratio is at most 0.25.

As for IIRP, the enrichment ratio was at most 0.25.

In the case of GFFW, the enrichment ratio was at most 0.25.

For FHKA, the enrichment ratio is at most 0.25.

Turning to QGRT, the enrichment ratio was at most 0.25.

As for TFNK, the enrichment ratio is at most 0.25.

As for HPTY, the enrichment ratio is at most 0.25.

On to VCNW, for which the enrichment ratio was at most 0.25.

As to FMQK, the enrichment ratio was at most 0.25.

For the variant PWAH, the enrichment ratio was at most 0.25.

Take FMFI: the enrichment ratio was at most 0.25.

Consider FHVN, for which the enrichment ratio was at most 0.25.

For AEDF, the enrichment ratio was at most 0.25.

On to WYWR, for which the enrichment ratio is at most 0.25.

Consider YCYR, for which the enrichment ratio is at most 0.25.

In the case of LKWT, the enrichment ratio was at most 0.25.

Turning to TCDF, the enrichment ratio was at most 0.25.

Consider TSAY, for which the enrichment ratio turned out to be 11.6.

For the variant KISC, the enrichment ratio was at most 0.25.

Turning to ATGL, the enrichment ratio stood at 6.2.

Regarding EFTQ, the enrichment ratio was at most 0.25.

Consider LIEM, for which the enrichment ratio is at most 0.25.

In the case of NLEH, the enrichment ratio was at most 0.25.

HNGR: the enrichment ratio was at most 0.25.

As to QRMH, the enrichment ratio is at most 0.25.

As to FWTG, the enrichment ratio was at most 0.25.

As for ESRR, the enrichment ratio is at most 0.25.

In the case of KYRG, the enrichment ratio was at most 0.25.

In the case of EYIW, the enrichment ratio is at most 0.25.

Take HQGA: the enrichment ratio is at most 0.25.

Turning to PVTV, the enrichment ratio was at most 0.25.

Take MDHR: the enrichment ratio is at most 0.25.

Consider PDMI, for which the enrichment ratio was at most 0.25.

On to PMSI, for which the enrichment ratio is at most 0.25.

As to YSRY, the enrichment ratio was at most 0.25.

As to PRYP, the enrichment ratio is at most 0.25.

For the variant LLDE, the enrichment ratio was at most 0.25.

PNFL: the enrichment ratio was at most 0.25.

These data come from a collection of fitness landscapes (doi:10.1126/science.1257360).
